# Laboratory results taken from the supplement of paper PMC8728848.
# This is one part of the list.
# B1: LKITALY (Gibberella zeae) (protein)
# chain: MGNFHESSNNIWLEDGHILHAECGNGEGDYVESTLDLDYYIGNDDGSFSWGGENFSGSASNITLDIEGDDNIPVLRAELNPMDGDPVEANVNLSERIGNDCGTLIFLA
# Key:
# Assay in all cases: glycan array binding signal (z-score within array); higher = stronger binding
# Conditions in all cases: glycan notation: IUPAC condensed, linker removed
# Fuc(a1-2)Gal = molecular target: Fuc(a1-2)Gal
# Outline: (§1)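 From the Consortium for Functional Glycomics database, 3228 arrays were curated, keeping only those whose protein sequence was available. Binding is given as a within-array Z-score averaged across arrays sharing a protein sequence and across linkers. Negative Z-scores can be read as non-binding.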
# Fuc(a1-2)Gal(b1-3)GalNAc = molecular target: Fuc(a1-2)Gal(b1-3)GalNAc
# Outline: as §1
# [1] = molecular target: Fuc(a1-2)Gal(b1-3)GalNAc(b1-3)Gal
# Outline: as §1
# [2] = molecular target: Fuc(a1-2)Gal(b1-3)GalNAc(b1-3)Gal(a1-4)Gal(b1-4)Glc
# Outline: as §1
# [3] = molecular target: Fuc(a1-2)Gal(b1-3)GalNAc(b1-4)[Neu5Ac(a2-3)]Gal(b1-4)Glc
# Outline: as §1
# Fuc(a1-2)Gal(b1-3)GlcNAc = molecular target: Fuc(a1-2)Gal(b1-3)GlcNAc
# Outline: as §1
# [4] = molecular target: Fuc(a1-2)Gal(b1-3)GlcNAc(b1-3)Gal(b1-4)Glc
# Outline: as §1
# [5] = molecular target: Fuc(a1-2)Gal(b1-3)[Fuc(a1-4)]GlcNAc
# Outline: as §1
# Fuc(a1-2)Gal(b1-4)Glc = molecular target: Fuc(a1-2)Gal(b1-4)Glc
# Outline: as §1
# Fuc(a1-2)Gal(b1-4)GlcNAc = molecular target: Fuc(a1-2)Gal(b1-4)GlcNAc
# Outline: as §1
# [6] = molecular target: Fuc(a1-2)Gal(b1-4)GlcNAc(b1-3)Gal(b1-4)GlcNAc
# Outline: as §1
# [7] = molecular target: Fuc(a1-2)Gal(b1-4)GlcNAc(b1-3)Gal(b1-4)GlcNAc(b1-3)Gal(b1-4)GlcNAc
# Outline: as §1
# [8] = molecular target: Fuc(a1-2)Gal(b1-4)[Fuc(a1-3)]GlcNAc
# Outline: as §1
# [9] = molecular target: Fuc(a1-2)Gal(b1-4)[Fuc(a1-3)]GlcNAc(b1-3)Gal(b1-4)[Fuc(a1-3)]GlcNAc
# Outline: as §1
# [10] = molecular target: Fuc(a1-2)Gal(b1-4)[Fuc(a1-3)]GlcNAc(b1-3)Gal(b1-4)[Fuc(a1-3)]GlcNAc(b1-3)Gal(b1-4)[Fuc(a1-3)]GlcNAc
# Outline: as §1
# Fuc(a1-2)GlcNAc = molecular target: Fuc(a1-2)GlcNAc
# Outline: as §1
# Fuc(a1-2)[Gal(a1-3)]Gal = molecular target: Fuc(a1-2)[Gal(a1-3)]Gal
# Outline: as §1
# [11] = molecular target: Fuc(a1-2)[Gal(a1-3)]Gal(b1-3)GlcNAc
# Outline: as §1
# [12] = molecular target: Fuc(a1-2)[Gal(a1-3)]Gal(b1-4)Glc
# Outline: as §1
# [13] = molecular target: Fuc(a1-2)[Gal(a1-3)]Gal(b1-4)GlcNAc
# Outline: as §1
# [14] = molecular target: Fuc(a1-2)[Gal(a1-3)]Gal(b1-4)[Fuc(a1-3)]GlcNAc
# Outline: as §1
# [15] = molecular target: Fuc(a1-2)[Gal(a1-4)]Gal(b1-4)GlcNAc
# Outline: as §1
# [16] = molecular target: Fuc(a1-2)[GalNAc(a1-3)]Gal
# Outline: as §1
# [17] = molecular target: Fuc(a1-2)[GalNAc(a1-3)]Gal(b1-3)GlcNAc
# Outline: as §1
# [18] = molecular target: Fuc(a1-2)[GalNAc(a1-3)]Gal(b1-4)Glc
# Outline: as §1
# [19] = molecular target: Fuc(a1-2)[GalNAc(a1-3)]Gal(b1-4)GlcNAc
# Outline: as §1
# [20] = molecular target: Fuc(a1-2)[GalNAc(a1-3)]Gal(b1-4)[Fuc(a1-3)]GlcNAc
# Outline: as §1
# [21] = molecular target: Fuc(a1-2)[GalNAc(a1-4)]Gal(b1-4)GlcNAc
# Outline: as §1
# [22] = molecular target: Fuc(a1-2)[GalNAc(b1-3)]Gal
# Outline: as §1
# Fuc(a1-3)GlcNAc = molecular target: Fuc(a1-3)GlcNAc
# Outline: as §1
binder,measurement,setting,value
B1,glycan array binding signal (z-score),Fuc(a1-2)Gal,-0.357
same,glycan array binding signal (z-score),Fuc(a1-2)Gal(b1-3)GalNAc,-0.361
same,glycan array binding signal (z-score),[1],-0.37
same,glycan array binding signal (z-score),[2],-0.359
same,glycan array binding signal (z-score),[3],-0.344
same,glycan array binding signal (z-score),Fuc(a1-2)Gal(b1-3)GlcNAc,-0.357
same,glycan array binding signal (z-score),[4],-0.327
same,glycan array binding signal (z-score),[5],-0.337
same,glycan array binding signal (z-score),Fuc(a1-2)Gal(b1-4)Glc,-0.34
same,glycan array binding signal (z-score),Fuc(a1-2)Gal(b1-4)GlcNAc,-0.355
same,glycan array binding signal (z-score),[6],-0.364
same,glycan array binding signal (z-score),[7],-0.342
same,glycan array binding signal (z-score),[8],-0.332
same,glycan array binding signal (z-score),[9],-0.341
same,glycan array binding signal (z-score),[10],-0.36
same,glycan array binding signal (z-score),Fuc(a1-2)GlcNAc,-0.252
same,glycan array binding signal (z-score),Fuc(a1-2)[Gal(a1-3)]Gal,-0.364
same,glycan array binding signal (z-score),[11],-0.347
same,glycan array binding signal (z-score),[12],-0.365
same,glycan array binding signal (z-score),[13],-0.355
same,glycan array binding signal (z-score),[14],-0.356
same,glycan array binding signal (z-score),[15],-0.34
same,glycan array binding signal (z-score),[16],-0.347
same,glycan array binding signal (z-score),[17],-0.357
same,glycan array binding signal (z-score),[18],-0.35
same,glycan array binding signal (z-score),[19],-0.355
same,glycan array binding signal (z-score),[20],-0.35
same,glycan array binding signal (z-score),[21],-0.359
same,glycan array binding signal (z-score),[22],-0.36
same,glycan array binding signal (z-score),Fuc(a1-3)GlcNAc,-0.346
